Measured values published in the RNAGym collection of RNA variant scans (doi:10.7554/elife.90254).
The source gives no read counts; variants with many changes may rest on few reads.

B1: OR4K15 (parent)
chain: GUUAACGGUCAUAGGCCAUGGAAACUAGGAGCACCAUUUCGCUGCCAGUGAAGAAAUGAACAAAGAAAAUCUGGGCCAGGCAGGCAUCAAAAGAAAUAGUCUUGCGCUCAACCAGAAAGUCUGUAAUCAUUUUAAGGGUA

Variants of: B1
Assay: self-cleavage, relative activity (ratio to wild type); higher = more cleavage; in vitro, sequencing; the parent is a self-cleaving ribozyme

| Variant | self-cleavage |
| --- | --- |
| U3A U124A U133C | 0.53 |
| A4U A24G A52G U57C | 0.89 |
| U3C A62G U133C | 2.28 |
| U3C A96G A125G | 0.26 |
| U3A A82G U87C | 0.34 |
| A4G U38C A125G | 0.57 |
| A5G A23G A69G | 0.75 |
| A4G A56G A60G | 0.77 |
| A5C A47U A60G A129G | 0.61 |
| A5C A67G U120C | 0.6 |
| U3A A4G C34U G74A | 0.15 |
| A4G U49C A60G A82G A89G A98G U122C | 0.05 |
| A4G A13U A116G A140G | 1.24 |
| U3C A23G A54G | 0.36 |
| A4G U37C U38C | 2.55 |
| U3C A11G A54G | 0.64 |
| A5G A11U U38C A78U U102C | 0.86 |
| U2C U57C C105U | 0.01 |
| U3C A30G G106U U139C | 0.11 |
| U3C A22G A63G U132C | 1.58 |
| U3G A117U A134G | 0.83 |
| A5C U43A A52G U102C | 2.02 |
| A5C A59U A90C A134G | 0.53 |
| A4C U12A A117G | 1.67 |

| Variant | self-cleavage |
| --- | --- |
| U3A A23G U57C A59G A64G A96G | 0.09 |
| A4G A82U A117G | 0.19 |
| U2C U87C G93U | 1.26 |
| U3C A23U A90G | 0.53 |
| U3C A22G A68G | 1.89 |
| U2C U72C A98C A116G | 0.24 |
| U3C U70C U87C A110G | 0.12 |
| A4G A63G A111G | 0.1 |
| U2C U43A U57C A82G | 0.21 |
| A4G A60U A68U A69G A110G A118G | 0.24 |
| U3G A67G A90G U102C | 1.25 |
| A5C U38A U39C U122C A126G | 0.59 |
| A4G U9C A117G U139G A140U | 2.09 |
| U3C U39A A52G U57C A95G | 1.26 |
| A5G A18U A59G A135G | 0.87 |
| A4U C25A A90G | 1.42 |
| U3C A55G A66G | 0 |
| U2G A22U U131C | 1.57 |
| A5C A52G A95G A114U A118G | 0.49 |
| U3C A11U A129G | 0.67 |
| A4G A64G U97C | 0.84 |
| U3A A51G A62G A82U A116G | 0 |
| A4G U9C A82U | 0.19 |
| A5G A23G A55G | 1.17 |

| Variant | self-cleavage |
| --- | --- |
| A4G A78G A114U | 0.03 |
| U3C U12C A47G A68G U103C G138A | 1 |
| A5C A23G A90G | 1.02 |
| A4G A36U G53A A59G A68G A95G | 1.24 |
| A4G U49A A63G | 1.54 |
| U3C A30G A59G A111G A116U A118G | 0 |
| A4G A62U A90C A96U | 1.09 |
| U3C A24G U70C A95G | 1.02 |
| A5G A23G A95G U102G | 1.22 |
| A5G A18C A52G U122C | 0.71 |
| U3C A47U A55G | 0.27 |
| U2C U43C A82G A96G | 0.47 |
| A4G U108C U139C | 0.05 |
| U3G A51G A67C A91G A129G | 1.35 |
| U3C G44C A64G U108C | 0.03 |
| A5C U9C A23G U39C | 0.51 |
| A4U U26A A66G U70C | 0.7 |
| A4G A52G U70C A110C | 0.15 |
| A4G A54U U103C A110G A126U | 0.09 |
| U3C U39C G41U A54G U97C U102G | 0.22 |
| U3A A11G A33U A47U A56G A78U U124A | 0.09 |
| A4G U9A A11G A24G A56G A114G | 0.58 |
| U2C U70C A94G | 0.25 |
| U3C A5G U12C U122C U130C | 0.6 |

| Variant | self-cleavage |
| --- | --- |
| U3A U9C U37C A114U | 0.06 |
| U2C U49A A51G | 0.52 |
| U2C U108C A116G | 0 |
| A5G A23G A92G U108C | 0.06 |
| U2C U49C A118G | 0.06 |
| A4G A67G A96G | 0.9 |
| U3G U37C A129G | 0.35 |
| A4G U38C U122C | 1.5 |
| A4G A82G U108A | 0.13 |
| U3C U43A A62G A78G U122C | 0.39 |
| A4G A5G U19C A22U A90G | 1.22 |
| U3C A55G A110G A117U | 0.12 |
| A5G A11U A91G | 1.04 |
| A5G A24U A60U | 0.87 |
| U3C A63G A68C A110G A129G | 0.22 |
| U3C A11C G21U A89G | 0.89 |
| A4G G84A A114G U120A A126U A134G | 0.05 |
| U3C U57C A82G U87C A96G C105U U120C U122C U131C | 0 |
| A4G U12C A30G G104A A111G | 0.07 |
| U2G A22U A78C A110C U124C U131C | 0.04 |
| U3A A47G U100C | 1.17 |
| U3A G15C A55G | 0.96 |
| U3A U87A A114U | 0.03 |
| U3C A82G A86U | 0.63 |

| Variant | self-cleavage |
| --- | --- |
| A5C A62G U108C | 0.04 |
| A4G A23G U120A U130C | 0.53 |
| U3C A27U A62G | 1.12 |
| U3C A67G U103C | 0.98 |
| A4G A55G A59G A98G A116G | 0.06 |
| U3C A47G U72G U130C U131A | 0.08 |
| U2C U72C U122C | 0.16 |
| U3A U9C A18G A30G A36U U49C | 0.72 |
| A5G A18U U127C U133C | 0.54 |
| A4G A60G U72C | 0.3 |
| A4U A51G A60G A90G U130C | 1.47 |
| U3C C61U U133C | 1.59 |
| A4G A51G U102C A111G | 0.04 |
| U3C A22G U70C A89G A94G A118G | 0.3 |
| U3C A66G A95G A140G | 0.92 |
| A5G A24G U43C A90U A140U | 1.24 |
| U3A A96G U103C | 1.13 |
| A4G A18G A78G U108C U120C U130C | 0.01 |
| U3A A62G A96G | 1.22 |
| A5G A27G A94G | 1.61 |
| A4G A22G A66G U72C A90G A126G | 0.39 |
| A5G A24G A67G U87C A89G A96U A116G | 0.56 |
| U3C A5G A55G A96G | 0.95 |
| A4G A55U A60G | 1 |

| Variant | self-cleavage |
| --- | --- |
| A5G A24G G53U U72A U103C A118G | 0.06 |
| A4G U43C U131C | 0.34 |
| A4G A51C A135U | 1.2 |
| A5C U37C A55G | 1.83 |
| A5G A13U U57C A90G | 0.52 |
| U3C A27C A95G | 0.75 |
| A4G U39C U124C | 1.02 |
| U3C A55G A66G A82G | 0.38 |
| U3C U43C A47G A94G | 0.68 |
| A5G A13U A22G G29C A51U A54G A116C | 0.04 |
| A4G A23G A96G | 0.67 |
| U3C A18G U19C U37C A52G A66G A117U A129G | 0.47 |
| A4G A11U A63G A92G U120C U132A | 0.78 |
| U3C A5U A36G | 1.69 |
| U3C A5G A117U | 0.67 |
| U3C A23G A62G U102C | 1.34 |
| U3G C17U A24C G83A | 2.16 |
| U3C A23G A51G | 1.02 |
| A5G A23G A60G A64C A69U A117G | 0.73 |
| A4G A60G A78G | 0.46 |
| A5G A22G C42U | 1.28 |
| A4G U38C A56G A67G A94G A117G | 1.46 |
| A4G U38A U100C | 1.44 |
| A4U U38C A59U A96C | 2.1 |

| Variant | self-cleavage |
| --- | --- |
| U2G G53U U122C | 0.41 |
| A5C A69G A94G U130C | 0.85 |
| U3C A59G A60G C101U | 0.25 |
| U2C U39C A54G A94U G99A | 0.7 |
| A4G A89G A117G | 0.99 |
| A4U U9C A68G A94G | 0.53 |
| A5C A30U A56G | 1.94 |
| A5G A22G A47G A90G U120C U122C | 0.47 |
| A4G U38C A51G A89U | 1.18 |
| U2C U49C U102C | 1.43 |
| U3C A52G A90G G137U | 0.73 |
| A5C A95G G115U | 0.35 |
| U3C A33G U120A | 1.15 |
| A4G U49C A68G A111U | 0.31 |
| A5G A24G A27U A59G A63U A135U | 0.11 |
| A4G U72C U103A | 0.18 |
| U2C U72C A111G | 0.05 |
| A4G A51G A86G A91G A118G U139C | 0.1 |
| A4G A64U A91G | 1.25 |
| A4G A5G A47G G53A | 0.8 |
| A5G A18G A51G A68G U103C | 0.97 |
| A4G U37C U57A U70C A78U | 0.45 |
| U3A C6U A59G A66G A86G U139C | 0.69 |
